{"source": "the supplement of paper PMC10126150", "note": "Sequences with one replicate were seen in a single cluster, so their values are uncertain.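 Further: ATP exposure 15 min at 22 °C before imaging.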"}
{"system": "ATP", "test": "switch fluorescence ratio, 500 uM ATP over buffer (Cy3 cluster intensity, sum of 5 cycles each) (fold (ratio)); higher = stronger signal-on switching upon ATP binding; sequences stand for … in TCGTCGGCAGCGTCAGATGTGTATAAGAGACAGTTTTTTTTTTTTTTTTTTTTTTTTT…TC", "conditions": "aptamer strand: ATP DNA aptamer (quencher-CACCTGGGGGAGTATTGCGGAGGAAGG + anchor), 100 nM annealed; ATP concentration: 500 uM; one replicate", "outline": "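Cy3-labelled switching-strand clusters on a modified Illumina MiSeq flow-cell were annealed to 100 nM quencher-labelled ATP aptamer and imaged first in selection buffer, then after 15 min with 500 uM ATP at 22 °C. NaOH stripping and re-annealing separated each of five buffer/ATP cycles, and clusters outside 100-1000 RFU were excluded. The fluorescence ratio sums target-cycle Cy3 intensity over buffer-cycle Cy3 intensity per cluster and averages it per switch-domain sequence.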"}
{"sequence": "GCCGTATCTA", "switch fluorescence ratio": 0.975}
{"sequence": "GCCGTCA", "switch fluorescence ratio": 1.01}
{"sequence": "GCCGTCCACT", "switch fluorescence ratio": 0.987}
{"sequence": "GCCGTCCGC", "switch fluorescence ratio": 0.989}
{"sequence": "GCCGTCGTTA", "switch fluorescence ratio": 1.05}
{"sequence": "GCCGTGATAA", "switch fluorescence ratio": 1.33}
{"sequence": "GCCGTGGTAT", "switch fluorescence ratio": 1}
{"sequence": "GCCGTGGTGT", "switch fluorescence ratio": 1.09}
{"sequence": "GCCGTTTAGG", "switch fluorescence ratio": 0.998}
{"sequence": "GCCTAATACA", "switch fluorescence ratio": 1.02}
{"sequence": "GCCTACAGCT", "switch fluorescence ratio": 0.996}
{"sequence": "GCCTAGCAAT", "switch fluorescence ratio": 1.31}
{"sequence": "GCCTATGTAG", "switch fluorescence ratio": 1.01}
{"sequence": "GCCTATTGA", "switch fluorescence ratio": 0.929}
{"sequence": "GCCTATTGCA", "switch fluorescence ratio": 0.989}
{"sequence": "GCCTCACGAC", "switch fluorescence ratio": 1.44}
{"sequence": "GCCTCATTTG", "switch fluorescence ratio": 1.07}
{"sequence": "GCCTCCAAAT", "switch fluorescence ratio": 1.72}
{"sequence": "GCCTCGTACC", "switch fluorescence ratio": 1.09}
{"sequence": "GCCTCTGTAT", "switch fluorescence ratio": 1.09}
{"sequence": "GCCTGACGAT", "switch fluorescence ratio": 2.44}
{"sequence": "GCCTGAGCTT", "switch fluorescence ratio": 1.03}
{"sequence": "GCCTGCTTGT", "switch fluorescence ratio": 1.03}
{"sequence": "GCCTGGGGTA", "switch fluorescence ratio": 1.01}
{"sequence": "GCCTTAGCCC", "switch fluorescence ratio": 1.01}
{"sequence": "GCCTTATCTG", "switch fluorescence ratio": 1.03}
{"sequence": "GCCTTCCATC", "switch fluorescence ratio": 2.14}
{"sequence": "GCCTTGATAA", "switch fluorescence ratio": 0.955}
{"sequence": "GCCTTGGATC", "switch fluorescence ratio": 0.997}
{"sequence": "GCCTTGTCGT", "switch fluorescence ratio": 0.953}
{"sequence": "GCCTTGTGCC", "switch fluorescence ratio": 0.958}
{"sequence": "GCCTTGTTTG", "switch fluorescence ratio": 0.99}
{"sequence": "GCCTTTTTCT", "switch fluorescence ratio": 1.01}
{"sequence": "GCGAACGACG", "switch fluorescence ratio": 1.11}
{"sequence": "GCGAAGAGTC", "switch fluorescence ratio": 1.01}
{"sequence": "GCGAATTGTG", "switch fluorescence ratio": 1.04}
{"sequence": "GCGACAAAAG", "switch fluorescence ratio": 1.1}
{"sequence": "GCGACAGAGG", "switch fluorescence ratio": 1.01}
{"sequence": "GCGACCCGAA", "switch fluorescence ratio": 1.1}
{"sequence": "GCGACCGTTG", "switch fluorescence ratio": 0.994}
{"sequence": "GCGAGAATTA", "switch fluorescence ratio": 0.98}
{"sequence": "GCGAGCAGAA", "switch fluorescence ratio": 0.987}
{"sequence": "GCGAGCTGTT", "switch fluorescence ratio": 1.03}
{"sequence": "GCGAGGGGAG", "switch fluorescence ratio": 0.96}
{"sequence": "GCGAGTACAA", "switch fluorescence ratio": 1.06}
{"sequence": "GCGATAGTCT", "switch fluorescence ratio": 1}
{"sequence": "GCGATATAAT", "switch fluorescence ratio": 1.01}
{"sequence": "GCGATCGAA", "switch fluorescence ratio": 1.02}
{"sequence": "GCGATCGGAA", "switch fluorescence ratio": 1.1}
{"sequence": "GCGATGAAGT", "switch fluorescence ratio": 0.991}
{"sequence": "GCGATTATCA", "switch fluorescence ratio": 0.978}
{"sequence": "GCGATTCGTT", "switch fluorescence ratio": 0.982}
{"sequence": "GCGATTGAGA", "switch fluorescence ratio": 0.995}
{"sequence": "GCGCAACCGG", "switch fluorescence ratio": 0.985}
{"sequence": "GCGCAGAGTC", "switch fluorescence ratio": 1.17}
{"sequence": "GCGCAGATCC", "switch fluorescence ratio": 1.3}
{"sequence": "GCGCAGCGGG", "switch fluorescence ratio": 0.99}
{"sequence": "GCGCAGTTAT", "switch fluorescence ratio": 1.07}
{"sequence": "GCGCCATC", "switch fluorescence ratio": 1.42}
{"sequence": "GCGCCCCTTT", "switch fluorescence ratio": 0.978}
{"sequence": "GCGCCGGCTA", "switch fluorescence ratio": 1.02}
{"sequence": "GCGCCGGCTT", "switch fluorescence ratio": 1.04}
{"sequence": "GCGCCGGGCC", "switch fluorescence ratio": 1.02}
{"sequence": "GCGCCGGGTT", "switch fluorescence ratio": 1.02}
{"sequence": "GCGCCTAAAG", "switch fluorescence ratio": 1.05}
{"sequence": "GCGCCTCCCA", "switch fluorescence ratio": 1.04}
{"sequence": "GCGCCTCTAC", "switch fluorescence ratio": 2.11}
{"sequence": "GCGCGAAATT", "switch fluorescence ratio": 0.982}
{"sequence": "GCGCGACGAT", "switch fluorescence ratio": 1.06}
{"sequence": "GCGCGAGTGA", "switch fluorescence ratio": 1.02}
{"sequence": "GCGCGCCGGT", "switch fluorescence ratio": 1.01}
{"sequence": "GCGCGCCTGT", "switch fluorescence ratio": 1.01}
{"sequence": "GCGCGCG", "switch fluorescence ratio": 1.03}
{"sequence": "GCGCGGGGGC", "switch fluorescence ratio": 1.04}
{"sequence": "GCGCGTGAC", "switch fluorescence ratio": 1.06}
{"sequence": "GCGCTAGGAA", "switch fluorescence ratio": 1}
{"sequence": "GCGCTGAAGA", "switch fluorescence ratio": 1.02}
{"sequence": "GCGCTGACCG", "switch fluorescence ratio": 1.03}
{"sequence": "GCGCTGGAAA", "switch fluorescence ratio": 1.03}
{"sequence": "GCGCTGGGAA", "switch fluorescence ratio": 0.98}
{"sequence": "GCGCTGTTTG", "switch fluorescence ratio": 1.02}
{"sequence": "GCGCTTATGA", "switch fluorescence ratio": 1.04}
{"sequence": "GCGCTTCTGG", "switch fluorescence ratio": 1.02}
{"sequence": "GCGCTTTAAG", "switch fluorescence ratio": 0.983}
{"sequence": "GCGCTTTAAT", "switch fluorescence ratio": 1.01}
{"sequence": "GCGCTTTTG", "switch fluorescence ratio": 0.998}
{"sequence": "GCGGAACACT", "switch fluorescence ratio": 1.08}
{"sequence": "GCGGACCCTT", "switch fluorescence ratio": 1.04}
{"sequence": "GCGGAGGCCC", "switch fluorescence ratio": 1.02}
{"sequence": "GCGGAGGCTC", "switch fluorescence ratio": 0.982}
{"sequence": "GCGGAGGTTC", "switch fluorescence ratio": 1.01}
{"sequence": "GCGGAGTGGA", "switch fluorescence ratio": 1.02}
{"sequence": "GCGGATAAAC", "switch fluorescence ratio": 1.04}
{"sequence": "GCGGATACAG", "switch fluorescence ratio": 1.05}
{"sequence": "GCGGATAGGC", "switch fluorescence ratio": 1.01}
{"sequence": "GCGGATGCAG", "switch fluorescence ratio": 0.925}
{"sequence": "GCGGCAGCAG", "switch fluorescence ratio": 0.989}
{"sequence": "GCGGCCACGA", "switch fluorescence ratio": 1.04}
{"sequence": "GCGGCGGCTT", "switch fluorescence ratio": 0.955}
{"sequence": "GCGGCGTCTA", "switch fluorescence ratio": 1.06}
{"sequence": "GCGGCTCTGT", "switch fluorescence ratio": 0.984}
